Laboratory results published in PubChem BioAssay AID485364 (National Center for Advancing Translational Sciences (NCATS), 2010).
The campaign covered roughly 360,000 compounds. About 11,000 (3.1%) were called active. The shares of active, inactive and inconclusive entries below differ from those in the screen. Calls follow the shape of the dose curve; as a rule, active = well fitted inhibition curve with a large enough effect; inconclusive = small, poorly fitted or top-dose-only effect; inactive = no such curve, though single readings can be large or run the other way. No potency is given beside an inconclusive call; the fits are too rough.

Target: Schistosoma mansoni thioredoxin glutathione reductase (TGR) (UniProt Q962Y6)
Test: qHTS Assay for the Inhibitors of Schistosoma Mansoni Peroxiredoxins; also: nearly all actives have a fitted effect of over 60% in size
Settings: purified TGR, DTNB reduction, TNB absorbance 405 nm; series mostly up to 114 µM
How it was run: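 First, TGR (20 nM dispensed) and NADPH were mixed with compound. Second, a 15 min room-temperature incubation followed. Third, further NADPH and then DTNB were added to start the reaction. Finally, TNB absorbance was monitored kinetically.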
Potency is read from the fitted curve at half-maximal effect; tags tell the direction and shape of the fitted curve.

Structure (SMILES)	Potency
O=C(NCCOc1cccnc1)C1CCC(=O)N(Cc2ccccc2F)C1 (centres undefined)	inconclusive [inhibitor, partial curve, poor fit]
COCCNC(=S)N/N=C/c1ccc(-c2ccc([N+](=O)[O-])cc2)o1	inconclusive [inhibitor, full curve, poor fit]
COc1ccc(NC(=O)CCc2c(C)nn(-c3ccc(N4CCOCC4)nn3)c2C)cc1Cl	inactive
COc1ccc(/C=N/NC(=O)c2nn(C)cc2Br)cc1CSCc1ccco1	inconclusive [inhibitor, full curve]
O=C(NC(=S)NCc1ccc2c(c1)OCO2)c1ccccc1	inconclusive [inhibitor, partial curve, poor fit]
Cn1c(=O)c2c(nc(SCCN3CCOCC3)n2Cc2ccccc2)n(C)c1=O	inconclusive [inhibitor, full curve, poor fit]
Cc1cc(-n2nc3ccccc3n2)c(O)c([N+](=O)[O-])c1	inconclusive [inhibitor, single point]
CCNC(=S)Nc1ccc2ncoc2c1	inconclusive [inhibitor, partial curve]
CN(C)S(=O)(=O)N1CCC(Oc2cccc(C(=O)NCCC3=CCCCC3)c2)CC1	inactive
CCOc1ccc(N2CC(C(=O)NCCc3ccccc3)CC2=O)cc1 (centres undefined)	inactive
CCNC(=O)c1c(N)sc2c1CCCCC2	inconclusive [inhibitor, partial curve]
O=C(CCl)N1CCN(S(=O)(=O)c2ccc3ccccc3c2)CC1	active: 5.62 µM
Cc1ccc(C)c(N(C)C(=O)C2CCN(S(=O)(=O)c3cccc4nsnc34)CC2)c1	inactive
Cc1ccc2[nH]c3c(=O)n4c(nc3c2c1)SCC4	inactive
COc1ccc(NC(=O)CS(=O)(=O)c2ccc(Br)cc2)cc1	inconclusive [inhibitor, single point]
CCCC(=O)Nc1ccc(C(=O)COC(=O)c2cc(C)oc2C)cc1	inconclusive [inhibitor, partial curve]
Clc1ccc(-c2csc(=Nc3cccnc3)n2CCCn2ccnc2)cc1Cl	inactive
CCOC(=O)C1CCCN(S(=O)(=O)c2ccc3[nH]c(=O)ccc3c2)C1 (centres undefined)	inactive
CCc1ccc2[nH]c(=O)c(C(c3nnnn3Cc3ccco3)N3CCC(C)CC3)cc2c1 (centres undefined)	inconclusive [inhibitor, single point]
Cc1cc(C)nc(NNC2=CC(=O)CC(C)(C)C2)n1	inconclusive [inhibitor, full curve]
O=C(CS(=O)c1ccccc1[N+](=O)[O-])Oc1ccc(Br)cc1 (centres undefined)	active: 25.1 µM
Cc1ccc(N(CC(=O)NCc2ccco2)S(=O)(=O)c2ccccc2)cc1	active: 25.1 µM
Cc1ccc2c(c1)c1c3n2CC(=C2C(=O)OC(C)(C)OC2=O)NC3CCC1 (centres undefined)	inconclusive [inhibitor, partial curve]
O=C(O)/C=C/C(=O)c1ccc(O)cc1	active: 3.16 µM
CCCCC(CC)COC(=O)C(C#N)=C(c1ccccc1)c1ccccc1 (centres undefined)	inactive

Structure (SMILES)	Potency
O=C(CN1CCN(S(=O)(=O)c2ccc(Cl)cc2)CC1)c1ccc(O)c(O)c1	active: 20 µM
Cc1ccc(CN2CCN(Cc3ccccn3)CC2CCO)cc1 (centres undefined)	inconclusive [inhibitor, single point]
C=CCn1c(SCC(=O)c2ccccc2)nnc1-c1ccc2c(c1)OCO2	inconclusive [inhibitor, partial curve]
O=C(N/N=C/c1ccccc1O)NC12CC3CC(CC(C3)C1)C2	inactive
COc1cccc(OCc2cc(C(=O)N3CCC(c4ccncc4)CC3)no2)c1	inactive
Cc1ccccc1N1CCN(C(=O)c2ccccc2NC(=O)/C=C\C(=O)O)CC1	inconclusive [inhibitor, partial curve, poor fit]
Cc1ccc(C(=O)Nc2ccc3c(c2)OCCO3)c(Cl)c1	inactive
O=C(CSc1nnc(Cc2cccs2)n1Cc1ccco1)Nc1cccc(Cl)c1	inconclusive [inhibitor, partial curve]
CC(=O)Nc1cccc(NC(=O)CSc2nnc(Cc3cccn3C)n2-c2ccc(C)cc2)c1	inconclusive [inhibitor, partial curve]
Cc1cc(C)c(C#N)c(Nc2cccc(C)c2C)n1	inactive
O=C(Cc1ccccc1[N+](=O)[O-])NCc1ccco1	inconclusive [inhibitor, single point]
Cc1cc(C)c(NC(=O)CS)c(Cl)c1	inconclusive [inhibitor, full curve]
CC(C)c1[nH]nc2c1C(Cc1ccccc1)C(C#N)=C(N)O2 (centres undefined)	inconclusive [inhibitor, partial curve]
COCCNC(=O)c1ccc(CS(=O)(=O)c2c(Cl)cccc2Cl)o1	active: 50.1 µM
CSc1nc(-c2ccccc2)nn1C(=O)c1ccccc1	inconclusive [inhibitor, partial curve, poor fit]
CCCCCn1c(=NC(=O)c2ccco2)c(C(=O)OCC)cc2c(=O)n3ccccc3nc21	inconclusive [inhibitor, single point]
CC(=O)OCCCNc1cc(Sc2ccc(Cl)cc2)c2nonc2c1[N+](=O)[O-]	active: 3.16 µM
CCC(CC)c1nn2c(N)c(/C=C3\C=Nc4ccccc43)c(=O)nc2s1	inactive
O=C1NC(c2cccnc2)Nc2sc3c(c21)CCCC3 (centres undefined)	active: 44.7 µM
Cc1ccc2oc(-c3ccc(NC(=O)CC(C)C)cc3)nc2c1	inactive
COc1cccc(C2NC(=O)NC(C)=C2C(=O)Nc2cc(OC)ccc2OC)c1 (centres undefined)	inconclusive [inhibitor, single point]
CN(C)S(=O)(=O)c1cccc(NC(=O)CN2C(=O)NC(Cc3c[nH]c4ccccc34)C2=O)c1 (centres undefined)	inactive
CCCN(C(=O)CCl)C1=CCCCC1	active: 11.2 µM
CCC(=O)Oc1ccc2c(C)cc(=O)oc2c1C(=O)CC	inconclusive [inhibitor, partial curve]
